# The other results are listed elsewhere or left out.
# B1: RBMC1 (Vibrio cholerae) (protein)
# chain: QQSQRVVTADNLMYLRSGFAIDAIGTTVNNLVGGPVQGTNGGVLRAPIALDQLQSVEVTSGLYNWGGYHIVAIKFTMKDGSSVLLGSTHYASNKKVETYTVPQGKRIKQINVWTGGWLVEGFQFVY
# Columns and labels:
# Test in all cases: glycan array binding signal (z-score within array); higher = stronger binding
# Conditions in all cases: glycan notation: IUPAC condensed, linker removed
# [1] = biological target: Fuc(a1-2)[GalNAc(a1-3)]Gal(b1-3)GlcNAc(b1-6)GalNAc
# How it was run: (§1)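 The binding signal is a Z-score computed within each array and averaged over linkers. Arrays of the same protein sequence at different concentrations or buffers were also averaged together. Data originate from 3228 arrays in the Consortium for Functional Glycomics database, kept only where the protein sequence was available.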
# [2] = biological target: Fuc(a1-2)[GalNAc(a1-3)]Gal(b1-4)Glc
# How it was run: as §1
# [3] = biological target: Fuc(a1-2)[GalNAc(a1-3)]Gal(b1-4)GlcNAc
# How it was run: as §1
# [4] = biological target: Fuc(a1-2)[GalNAc(a1-3)]Gal(b1-4)GlcNAc(b1-2)Man
# How it was run: as §1
# [5] = biological target: Fuc(a1-2)[GalNAc(a1-3)]Gal(b1-4)GlcNAc(b1-2)Man(a1-3)[Fuc(a1-2)[GalNAc(a1-3)]Gal(b1-4)GlcNAc(b1-2)Man(a1-6)]Man(b1-4)GlcNAc(b1-4)GlcNAc
# How it was run: as §1
# [6] = biological target: Fuc(a1-2)[GalNAc(a1-3)]Gal(b1-4)GlcNAc(b1-2)Man(a1-3)[Fuc(a1-2)[GalNAc(a1-3)]Gal(b1-4)GlcNAc(b1-2)Man(a1-6)]Man(b1-4)GlcNAc(b1-4)[Fuc(a1-6)]GlcNAc
# How it was run: as §1
# [7] = biological target: Fuc(a1-2)[GalNAc(a1-3)]Gal(b1-4)GlcNAc(b1-3)Gal(b1-4)GlcNAc
# How it was run: as §1
# [8] = biological target: Fuc(a1-2)[GalNAc(a1-3)]Gal(b1-4)GlcNAc(b1-3)Gal(b1-4)GlcNAc(b1-3)Gal(b1-4)GlcNAc
# How it was run: as §1
# [9] = biological target: Fuc(a1-2)[GalNAc(a1-3)]Gal(b1-4)GlcNAc(b1-3)GalNAc
# How it was run: as §1
# [10] = biological target: Fuc(a1-2)[GalNAc(a1-3)]Gal(b1-4)GlcNAc(b1-3)[Fuc(a1-2)[GalNAc(a1-3)]Gal(b1-4)GlcNAc(b1-6)]GalNAc
# How it was run: as §1
# [11] = biological target: Fuc(a1-2)[GalNAc(a1-3)]Gal(b1-4)GlcNAc(b1-6)GalNAc
# How it was run: as §1
# [12] = biological target: Fuc(a1-2)[GalNAc(a1-3)]Gal(b1-4)[Fuc(a1-3)]GlcNAc
# How it was run: as §1
# [13] = biological target: Fuc(a1-2)[GalNAc(a1-3)]Gal(b1-4)[Fuc(a1-3)]GlcNAc(b1-3)GalNAc
# How it was run: as §1
# [14] = biological target: Fuc(a1-2)[GalNAc(a1-4)]Gal(b1-4)GlcNAc
# How it was run: as §1
# [15] = biological target: Fuc(a1-2)[GalNAc(b1-3)]Gal
# How it was run: as §1
# Fuc(a1-3)GlcNAc = biological target: Fuc(a1-3)GlcNAc
# How it was run: as §1
# [16] = biological target: Fuc(a1-3)[Gal(b1-4)]Glc6S
# How it was run: as §1
# [17] = biological target: Fuc(a1-3)[Gal(b1-4)]GlcNAc
# How it was run: as §1
# [18] = biological target: Fuc(a1-3)[Gal(b1-4)]GlcNAc(b1-2)Man
# How it was run: as §1
# [19] = biological target: Fuc(a1-3)[Gal(b1-4)]GlcNAc(b1-2)Man(a1-3)[Fuc(a1-3)[Gal(b1-4)]GlcNAc(b1-2)Man(a1-6)]Man(b1-4)GlcNAc(b1-4)GlcNAc
# How it was run: as §1
# [20] = biological target: Fuc(a1-3)[Gal(b1-4)]GlcNAc(b1-2)Man(a1-3)[Fuc(a1-3)[Gal(b1-4)]GlcNAc(b1-2)Man(a1-6)]Man(b1-4)GlcNAc(b1-4)[Fuc(a1-6)]GlcNAc
# How it was run: as §1
# [21] = biological target: Fuc(a1-3)[Gal(b1-4)]GlcNAc(b1-3)Gal(b1-3)[Fuc(a1-4)]GlcNAc
# How it was run: as §1
# [22] = biological target: Fuc(a1-3)[Gal(b1-4)]GlcNAc(b1-3)Gal(b1-4)[Fuc(a1-3)]GlcNAc
# How it was run: as §1
# [23] = biological target: Fuc(a1-3)[Gal(b1-4)]GlcNAc(b1-3)Gal(b1-4)[Fuc(a1-3)]GlcNAc(b1-3)Gal(b1-4)[Fuc(a1-3)]GlcNAc
# How it was run: as §1
# [24] = biological target: Fuc(a1-3)[Gal(b1-4)]GlcNAc(b1-3)GalNAc
# How it was run: as §1
# [25] = biological target: Fuc(a1-3)[Gal(b1-4)]GlcNAc(b1-6)GalNAc
# How it was run: as §1
# [26] = biological target: Fuc(a1-3)[Gal(b1-4)]GlcNAc(b1-6)[Gal(b1-3)GlcNAc(b1-3)]Gal(b1-4)Glc
# How it was run: as §1
# [27] = biological target: Fuc(a1-3)[Gal(b1-4)]GlcNAc6S
# How it was run: as §1
# [28] = biological target: Fuc(a1-3)[Gal3S(b1-4)]Glc
# How it was run: as §1
# [29] = biological target: Fuc(a1-3)[Gal3S(b1-4)]GlcNAc
# How it was run: as §1
# [30] = biological target: Fuc(a1-3)[Gal3S(b1-4)]GlcNAc6S
# How it was run: as §1
# [31] = biological target: Fuc(a1-3)[GalNAc(b1-4)]GlcNAc
# How it was run: as §1
# [32] = biological target: Fuc(a1-3)[GalNAc(b1-4)]GlcNAc6S
# How it was run: as §1
# Fuc(a1-4)GlcNAc = biological target: Fuc(a1-4)GlcNAc
# How it was run: as §1
# Fuc(b1-3)GlcNAc = biological target: Fuc(b1-3)GlcNAc
# How it was run: as §1
# Gal(a1-2)Gal = biological target: Gal(a1-2)Gal
# How it was run: as §1
# Gal(a1-3)Gal = biological target: Gal(a1-3)Gal
# How it was run: as §1
# Gal(a1-3)Gal(b1-3)GlcNAc = biological target: Gal(a1-3)Gal(b1-3)GlcNAc
# How it was run: as §1
# [33] = biological target: Gal(a1-3)Gal(b1-3)GlcNAc(b1-2)Man
# How it was run: as §1
# [34] = biological target: Gal(a1-3)Gal(b1-3)GlcNAc(b1-2)Man(a1-3)[Gal(a1-3)Gal(b1-3)GlcNAc(b1-2)Man(a1-6)]Man(b1-4)GlcNAc(b1-4)GlcNAc
# How it was run: as §1
# [35] = biological target: Gal(a1-3)Gal(b1-3)GlcNAc(b1-3)GalNAc
# How it was run: as §1
# [36] = biological target: Gal(a1-3)Gal(b1-3)GlcNAc(b1-6)GalNAc
# How it was run: as §1
# [37] = biological target: Gal(a1-3)Gal(b1-3)[Fuc(a1-4)]GlcNAc(b1-2)Man(a1-3)[Gal(a1-3)Gal(b1-3)[Fuc(a1-4)]GlcNAc(b1-2)Man(a1-6)]Man(b1-4)GlcNAc(b1-4)GlcNAc
# How it was run: as §1
# Gal(a1-3)Gal(b1-4)Glc = biological target: Gal(a1-3)Gal(b1-4)Glc
# How it was run: as §1
# Gal(a1-3)Gal(b1-4)GlcNAc = biological target: Gal(a1-3)Gal(b1-4)GlcNAc
# How it was run: as §1
binder,measurement,setting,value
B1,glycan array binding signal (z-score),[1],-0.39
same,glycan array binding signal (z-score),[2],-0.423
same,glycan array binding signal (z-score),[3],-0.421
same,glycan array binding signal (z-score),[4],-0.34
same,glycan array binding signal (z-score),[5],0.123
same,glycan array binding signal (z-score),[6],-0.124
same,glycan array binding signal (z-score),[7],-0.138
same,glycan array binding signal (z-score),[8],-0.467
same,glycan array binding signal (z-score),[9],-0.368
same,glycan array binding signal (z-score),[10],-0.178
same,glycan array binding signal (z-score),[11],-0.333
same,glycan array binding signal (z-score),[12],-0.277
same,glycan array binding signal (z-score),[13],-0.164
same,glycan array binding signal (z-score),[14],-0.366
same,glycan array binding signal (z-score),[15],-0.299
same,glycan array binding signal (z-score),Fuc(a1-3)GlcNAc,-0.338
same,glycan array binding signal (z-score),[16],-0.164
same,glycan array binding signal (z-score),[17],-0.244
same,glycan array binding signal (z-score),[18],-0.4
same,glycan array binding signal (z-score),[19],1.67
same,glycan array binding signal (z-score),[20],0.197
same,glycan array binding signal (z-score),[21],-0.378
same,glycan array binding signal (z-score),[22],-0.364
same,glycan array binding signal (z-score),[23],-0.383
same,glycan array binding signal (z-score),[24],-0.345
same,glycan array binding signal (z-score),[25],-0.354
same,glycan array binding signal (z-score),[26],-0.359
same,glycan array binding signal (z-score),[27],0.277
same,glycan array binding signal (z-score),[28],-0.234
same,glycan array binding signal (z-score),[29],-0.201
same,glycan array binding signal (z-score),[30],-0.233
same,glycan array binding signal (z-score),[31],-0.35
same,glycan array binding signal (z-score),[32],-0.254
same,glycan array binding signal (z-score),Fuc(a1-4)GlcNAc,-0.041
same,glycan array binding signal (z-score),Fuc(b1-3)GlcNAc,-0.422
same,glycan array binding signal (z-score),Gal(a1-2)Gal,-0.395
same,glycan array binding signal (z-score),Gal(a1-3)Gal,-0.302
same,glycan array binding signal (z-score),Gal(a1-3)Gal(b1-3)GlcNAc,-0.424
same,glycan array binding signal (z-score),[33],-0.195
same,glycan array binding signal (z-score),[34],0.94
same,glycan array binding signal (z-score),[35],-0.245
same,glycan array binding signal (z-score),[36],-0.341
same,glycan array binding signal (z-score),[37],0.377
same,glycan array binding signal (z-score),Gal(a1-3)Gal(b1-4)Glc,-0.224
same,glycan array binding signal (z-score),Gal(a1-3)Gal(b1-4)GlcNAc,-0.38

# — the supplement of paper PMC8728848
